The campaign covered roughly 150,000 compounds. About 540 (0.36%) showed an effect of 50% or more. Some of the results follow.
Test system: Plasmodium falciparum
Test: Primary screen in NF54 nanoGlo assay, in single point, at 2uM, 72h; a lower Z score goes with more inhibition
Type: functional, Erythrocyte
Settings: timepoint 72 hour

Structure (SMILES)	% Inhibition [%]	Z score
Cc1oc(-c2ccc(C(C)C)cc2)nc1Cn1cnc2nc3c(cc2c1=O)CCCC3	-16	2.11
CC[C@@H](C(=O)O)N(C)Cc1c(OC)ccc(F)c1F	-4	0.51
C[C@@H](CCc1ccc(O)cc1)N1CCC(N2CCC(C(=O)NC3CC3)CC2)CC1	7	-1.05
CCn1ncc(CNC(=O)Nc2sc(C)nc2CC(C)C)n1	-4	0.89
CCCCc1c(C)[nH]c2nc(N(Cc3ccc(C#N)cc3)C(=O)c3ccc(OC)cc3)nn2c1=O	-2	0.27
CCN1CCCC[C@H]1C(=O)N1CCOc2ccc(CN3CCc4ccccc4C3)cc2C1	-3	0.41
O=C(NC1CC1)C1(C(=O)N2CCCC2)CCC1	1	-0.14
Cc1nn(C)c(C)c1NC(=O)N1CCN[C@H](c2ccccc2Cl)C1	-2	0.3
CS(=O)(=O)N1CC(C(=O)Nc2cccc3nsnc23)C1	-20	3.07
COc1cc(C)nc(N[C@@H](C)c2nc(C)cs2)n1	-4	0.31
CCc1ccc(C(=O)NCCCn2ccnn2)[nH]1	0	-0.05
CC(C)Cc1ccc(CNCc2n[nH]c(=O)[nH]2)s1	-5	0.99
O=C(NCC1CCCO1)C1CC1c1ccccc1 (stereo not given)	-2	0.26
O=C(NCCc1c[nH]c2ccccc12)C(=O)NCCc1c[nH]c2ccccc12	-2	0.31
COc1ccc(-n2nc(C(=O)N3CCCC3)c(=O)n(Cc3cccc(C(F)(F)F)c3)c2=O)cc1OC	-15	2.08
O=C1C[C@H](c2csc(-c3ccccc3)n2)C2(CCCC2)O1	-16	2.47
Cc1ncccc1CNc1cncc(F)c1	-13	2.53
O=C(NCCn1cc(-c2nc(-c3ccccn3)no2)nn1)c1ccccc1Cl	-19	3.69
CC[C@H](C)NC(=O)c1coc(CN(CCc2c[nH]c3ccccc23)Cc2cc(C)ccc2C)n1	-6	0.54
O=C(Nc1ccccc1C(F)(F)F)C1CN(C(=O)c2ccc(F)c(F)c2)C1	-13	2
C[C@H](NC(=O)Nc1ccccc1)c1cc2ccccc2o1	-9	0.82
Cc1cccc(NCc2cc(C)no2)c1	7	-0.95
CCn1c(=O)c(NCc2nc(C)c[nH]2)nc2ccccc21	0	-0.01
CC(NC(=O)NC1CCCCC1O)c1ccc(-c2cccnc2)cc1 (stereo not given)	26	-2.99
Cc1nc2c(c(N3CCCC3)n1)CCN(C(=O)C(=O)N1CCOCC1)C2	-12	2.3
CS(=O)(=O)N1CCN(C(=O)N2CCC(=C3CCC3)CC2)C1=O	-9	1.41
COc1ccc(N2CCC(C(=O)NC3CCCCCCC3)CC2)nn1	-7	0.83
CC(C)c1nc(C(=O)NCCCn2cnnc2)cs1	-13	1.73

Structure (SMILES)	% Inhibition [%]	Z score
CC1=C(CCN2CCC(C(N)=O)CC2)C(C)(C)CCC1	-11	2.02
Cc1cn2nc(NC3CCN(C(=O)C4CCCOC4)C3)ccc2n1 (stereo not given)	-8	1.02
C#CCCC1(CCC(=O)N2CCCN(C(=O)CC)CC2)N=N1	-3	0.31
CN(C)S(=O)(=O)c1cc(Br)ccc1Br	-2	0.15
O=C(NC1CCCC1)N1CCOc2ccc(C(=O)N3CCOCC3)cc2C1	-6	0.9
Cc1c(NCc2ccccn2)cccc1C(=O)N1CC[C@@]2(CCCNC2)C1	2	-0.25
O=C(Nc1ccccc1)c1ccc(S(=O)(=O)c2ccccc2)cc1	7	-0.87
O=C(Nc1nc2c3c(ccc2s1)CCCC3)c1nccn2ccnc12	8	-0.88
N#Cc1ccccc1S(=O)(=O)NCc1ccnc(-c2ccsc2)c1	-11	1.21
O=S1(=O)CCC(CNC2CCc3ccc(F)cc32)C1 (stereo not given)	-8	1.29
O=C1CCN(C(=O)c2ccccc2)CCC[C@H](C(=O)NCc2ccc(F)cc2)CCN1	-1	0.12
COCC(C)(C)CNc1ncc(C(=O)O)cc1Cl	-1	0.11
Cc1ccc(NC(=O)[C@H]2CC(=O)N(CCc3c[nH]c4ccc(C)cc34)C2)c(C)c1	-1	0.1
COCC1(C(=O)NCc2cccnc2N2CCCCCCC2)CCC1	-2	0.34
C[C@H]1C[C@@H](O)CCN1Cc1ccccc1F	-17	2.15
CN1CCCC(CNc2ncccc2C#N)C1c1cccs1 (stereo not given)	-5	0.52
CC(=O)Oc1c(-c2ccc(NC(=O)c3ccccc3Cl)cc2)c(CC(C)C)nn1-c1cccc(C)c1	-1	0.11
CN(Cc1cnccn1)S(=O)(=O)c1ccc2cn[nH]c2c1	-4	0.5
O=C(Nc1scnc1-c1ccc(F)cc1)C1CC1c1ccco1 (stereo not given)	-1	0.09
COCC(=O)Nc1ccc2c(c1)CN(C(=O)OC(C)(C)C)C2	6	-0.71
Cc1ccc2[nH]c(CCNC(=O)C[C@H]3CCCOC3)nc2c1	-4	0.49
CCc1nccc(CN(C)Cc2nccn2CC)n1	-5	0.63
Cc1nn(CC(=O)NCCc2ccc[nH]2)c2ncccc12	-8	1.48
O=C(CN1C(=O)CCC1=O)NCC(c1ccco1)c1ccco1	-6	0.81
c1csc([C@@H]2CN(c3nc4ccccc4[nH]3)CCO2)c1	4	-0.83
CCC(=O)N1CCc2ccc(OCc3ccc(C(=O)NCC4CC4)o3)cc2[C@@H]1c1cccc(C)c1	-18	1.63
Cc1cccc(C)c1[C@@H]1CCCN1C(=O)NCc1nnn(C)n1	-1	0.12

— ChEMBL document CHEMBL4888484, “Replenishing the malaria drug discovery pipeline: Screening and hit evaluation of the MMV Hit Generation Library 1 (HGL1) against asexual blood stage Plasmodium falciparum ,using a nano luciferase reporter read-out” (2022)
